# Assay results published in the GPR68 mutational scans of Howard et al. (2025).
# B1: GPR68, Q15743 (parent)
# chain: MGNITADNSSMSCTIDHTIHQTLAPVVYVTVLVVGFPANCLSLYFGYLQIKARNELGVYLCNLTVADLFYICSLPFWLQYVLQHDNWSHGDLSCQVCGILLYENIYISVGFLCCISVDRYLAVAHPFRFHQFRTLKAAVGVSVVIWAKELLTSIYFLMHEEVIEDENQHRVCFEHYPIQAWQRAINYYRFLVGFLFPICLLLASYQGILRAVRRSHGTQKSRKDQIQRLVLSTVVIFLACFLPYHVLLLVRSVWEASCDFAKGVFNAYHFSLLLTSFNCVADPVLYCFVSETTHRDLARLRGACLAFLTCSRTGRAREAYPLGAPEASGKSGAQGEEPELLTKLHPAFQTPNSPGSGGFPTGRLA
# Assays:
# [1] = variants of: B1; test: cAMP reporter score (Enrich2 score, wild type = 0); higher = more signal; HEK293T, FACS bins
# [2] = variants of: B1; test: surface expression score (Enrich2 score, wild type = 0); higher = more signal; HEK293T, FACS bins
Variant,cAMP reporter score ([1]; pH 5.5),cAMP reporter score ([1]; pH 6),"cAMP reporter score ([1]; pH 6, modulator: ogerin)","cAMP reporter score ([1]; pH 6.5, modulator: ogerin)",surface expression score [2]
K220_R222del,-1.09,-0.809,-1.12,-1.19,-0.051
K223_D224insGSG,-1.47,-0.104,-1.41,-1.25,-0.149
H216F,-0.3,–,0.214,–,0.304
H216E,0.805,-0.661,0.438,-0.012,0.704
H216L,-0.631,0.898,–,–,–
H216K,0.263,–,0.587,0.104,1.9
H216R,-0.286,-0.194,-0.347,-0.836,0.273
H216P,-0.396,–,-0.539,-0.431,2.62
H216A,-0.153,-0.221,-0.257,0.382,0.747
H216N,-0.195,-0.479,-0.899,–,-0.68
H216W,-0.15,-0.972,-0.764,-0.674,0.239
H216Y,-0.726,-0.253,-0.689,-0.747,-0.522
H216I,0.931,1.52,0.653,0.313,-0.713
H216V,-0.351,0.664,-0.03,–,–
H216D,1.46,–,-0.64,-0.177,–
H216Q,0.877,0.315,0.725,-0.5,1.28
H216S,-0.29,-0.943,-0.739,-0.995,0.231
H216T,1.02,2.02,0.744,0.836,1.25
H216M,-0.487,–,0.493,–,-0.592
H216C,0.217,-0.828,-0.016,-0.805,1.98
H216G,0.066,-0.708,-1.01,-0.842,0.932
D224_Q225insGS,-1.36,-1.56,-1.69,-1.3,0.155

Variant,cAMP reporter score ([1]; pH 5.5),cAMP reporter score ([1]; pH 6),"cAMP reporter score ([1]; pH 6, modulator: ogerin)","cAMP reporter score ([1]; pH 6.5, modulator: ogerin)",surface expression score [2]
H216_T218del,-0.677,-0.397,-1.21,-1.38,-0.182
Q219_K220insGSG,-1.25,-1.4,-1.53,-1.01,0.818
Q225_I226insG,-0.154,–,–,0.763,0.186
T218_Q219insG,-0.12,–,-0.703,-1.93,0.978
G217_T218insGS,-2.34,-1.26,-2.52,-1.32,1.02
Q219_S221del,-1.17,-1.06,-1.43,-0.936,0.991
R214_S215insGSG,-1.62,-1.24,-0.393,-0.383,0.946
K220_S221insGSG,-0.854,-0.936,-0.956,-0.818,0.42
G217_T218insGSG,-1.18,-1.14,-1.29,-1.38,0.474
R228I,0.814,-0.22,0.545,-0.14,-1.71
R228T,-0.236,-1.06,-0.992,-1.35,-2.05
R228E,-1.04,-0.141,–,-1.31,-2.02
R228P,-1.78,-1.15,-1.36,-1.27,0.069
R228M,-0.383,–,-1.08,-0.945,-1.93
R228N,-0.019,–,-0.668,-0.17,-0.285
R228S,-1.19,-1.17,-1.2,-1.58,-2.47
R228G,-0.31,-1.09,-1.12,-1.08,-0.661
R228K,-0.754,0,-0.994,-0.77,-0.81
R228L,0.388,–,-0.17,-0.879,–
R228A,-0.167,–,-0.535,-0.332,-0.96
R228F,-0.655,-0.54,-1.31,-1.44,-2.33
R228Q,0.172,-0.463,-0.246,-1.07,-1.11

Variant,cAMP reporter score ([1]; pH 5.5),cAMP reporter score ([1]; pH 6),"cAMP reporter score ([1]; pH 6, modulator: ogerin)","cAMP reporter score ([1]; pH 6.5, modulator: ogerin)",surface expression score [2]
R228D,-1.12,–,-0.916,-0.929,–
R228H,0.112,-1.33,-0.495,-1.31,-0.787
Q219G,0.313,-1.07,-0.32,-0.768,-0.075
Q219A,-0.276,-0.258,0.41,-0.602,-0.353
Q219Y,0.783,-0.821,0.183,-0.487,0.306
Q219E,1.12,1.41,1.52,2.22,2.28
Q219C,0.606,–,0.397,1.23,-0.027
Q219S,1.13,2.87,1.76,2.13,0.987
Q219V,0.922,–,0.736,0.408,2.17
Q219K,1.13,0.726,1.31,–,0.865
Q219N,0.721,0.381,0.647,0.385,0.712
Q219T,0.286,2.36,0.937,2.02,0.701
Q219R,-0.312,-0.04,-0.508,-0.179,-0.27
Q219H,-0.545,0.359,-0.751,-0.078,-0.349
Q219F,0.42,-1.16,-0.76,0.171,-0.671
Q219L,0.119,1.08,-0.197,-0.78,0.203
Q219P,0.945,–,0.912,2.71,0.415
Q219I,0.869,-0.734,0.501,0.338,-0.528
Q219W,-0.238,-0.78,-0.598,-1.59,-0.329
Q219M,-0.241,-0.129,0.233,-0.352,-0.091
Q227I,0.172,-0.876,0.083,-1.09,-1.35

# The least precise scores are not listed. The source holds two more conditions with little spread; they are left out. Names with del lack the residues named; names with ins carry added residues between the positions named. For some assays here: The data file names ogerin without a concentration.
